# Measurements taken from paper PMC4336329 (PLoS ONE, 2015).
# The whole screen tested about 310,000 compounds, of which about 14,000 (4.5%) showed an effect of 50% or more. Effects have a minus sign here. Some of the results follow.
# Molecular target: human ether-à-go-go-related gene (hERG) potassium channel (human, UniProt Q12809)
# Experiment: primary screen, population patch clamp on CHO cells stably expressing hERG
# 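Note: peak tail current of the secondary pulse compared with the same well before compound.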
# Sequence of human ether-à-go-go-related gene (hERG) potassium channel (Q12809 whole entry, looked up): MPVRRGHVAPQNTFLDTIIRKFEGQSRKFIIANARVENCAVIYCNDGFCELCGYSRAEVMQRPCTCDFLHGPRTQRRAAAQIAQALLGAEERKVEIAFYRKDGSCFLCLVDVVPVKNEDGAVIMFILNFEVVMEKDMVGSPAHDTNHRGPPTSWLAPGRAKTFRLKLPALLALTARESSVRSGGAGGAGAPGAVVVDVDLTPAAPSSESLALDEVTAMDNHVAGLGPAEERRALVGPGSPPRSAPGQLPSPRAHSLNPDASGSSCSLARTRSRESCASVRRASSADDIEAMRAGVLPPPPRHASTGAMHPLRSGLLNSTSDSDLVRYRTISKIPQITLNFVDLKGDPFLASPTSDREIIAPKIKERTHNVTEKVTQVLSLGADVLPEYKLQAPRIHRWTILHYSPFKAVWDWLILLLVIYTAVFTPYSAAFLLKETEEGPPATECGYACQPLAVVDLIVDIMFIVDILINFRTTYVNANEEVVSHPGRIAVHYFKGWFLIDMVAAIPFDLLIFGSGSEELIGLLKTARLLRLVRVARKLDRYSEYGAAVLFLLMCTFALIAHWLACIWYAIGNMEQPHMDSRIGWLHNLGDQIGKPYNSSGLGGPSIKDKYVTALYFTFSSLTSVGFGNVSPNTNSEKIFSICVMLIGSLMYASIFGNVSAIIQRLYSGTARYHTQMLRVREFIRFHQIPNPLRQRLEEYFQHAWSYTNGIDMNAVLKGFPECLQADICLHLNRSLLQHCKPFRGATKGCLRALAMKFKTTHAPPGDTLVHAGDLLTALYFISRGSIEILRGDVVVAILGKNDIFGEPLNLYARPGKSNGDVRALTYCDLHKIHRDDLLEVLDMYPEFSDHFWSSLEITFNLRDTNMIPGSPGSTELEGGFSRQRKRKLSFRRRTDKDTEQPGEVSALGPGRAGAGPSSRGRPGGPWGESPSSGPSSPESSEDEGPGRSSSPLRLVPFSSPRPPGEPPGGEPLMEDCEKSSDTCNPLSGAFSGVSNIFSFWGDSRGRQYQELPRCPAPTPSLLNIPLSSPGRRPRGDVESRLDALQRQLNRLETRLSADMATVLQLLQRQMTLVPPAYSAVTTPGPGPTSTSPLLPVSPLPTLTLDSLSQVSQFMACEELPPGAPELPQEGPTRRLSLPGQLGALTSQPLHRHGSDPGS
row,SMILES,"hERG current change (%, negative = inhibition) at 10uM [%]"
1,COc1cc(OC)cc(-c2c(-c3cccs3)c3cc(-c4ccc(SC)cc4)ccc3n2C)c1,4.23
2,O=C(CNC(=O)c1ccc(Oc2ccccc2)cc1)OC1CCCCC1=O (stereo not shown),-72.2
3,c1csc(CNc2nc(-c3cccs3)nc3ccccc23)c1,-6.81
4,N#CC1(NC(=O)COc2ccc3ccc(=O)oc3c2)CCCCC1,-2.81
5,O=C(CC1S/C(=N/N=C/c2cccs2)NC1=O)Nc1ccccc1F (stereo not shown),65.3
6,Cc1ccnc(NC(=S)NC(=O)c2ccco2)c1,-10.3
7,Cn1c(Cc2ccccc2)nnc1SCC(=O)c1ccc(Br)s1,-26.1
8,C=C(CO)CC1CC(O)[C@]2(C)OC3CC4OC5C[C@]6(C)O[C@]7(C)CCC8OC9C[C@]%10(C)OC%11C(C)=CC(=O)OC%11CC%10OC9C[C@@H](C)C8OC7CC6O[C@]5(C)C/C=C\C4OC3CC2O1 (stereo partly shown),10.7
9,COC(=O)CN1C(=S)N(Cc2ccccc2)C(=O)C1CC(=O)Nc1ccc(Br)cc1 (stereo not shown),12.9
10,CCCCNC(=O)Cn1cnc2c(cnn2-c2ccc(C)c(C)c2)c1=O,-7
11,COc1cccc(N2CCN(C(=S)NCCc3ccccc3)CC2)c1,3.76
12,COc1ccc(Cl)cc1NC(=O)CCn1cnc2ccccc2c1=O,-2.16
13,CCOc1ccc(OCC(=O)OCC(=O)NNC(=O)c2ccc([N+](=O)[O-])cc2)cc1,0.0683
14,O=C(Nc1ccc(F)cc1F)c1c(C(F)(F)F)ccnc1Oc1ccccc1,9.99
15,Nc1cc(C(=O)OCC(=O)NCC2CCCO2)ccc1Cl (stereo not shown),11.7
16,Cc1ccc(-c2csc(N/N=C/c3ccco3)n2)c(C)c1,9.24
17,S=c1[nH]nc(Cc2ccccc2)n1-c1ccc(Cl)cc1,10.3
18,COC(CN1CCc2c(C)nc3c(C#N)cnn3c21)OC,5.84
19,Cc1cccc(NC(=S)NC2CCSc3ccccc32)c1 (stereo not shown),14.5
20,COC(=O)N1[C@H](Cc2ccccc2)C=C[C@]1(C)C(=O)O,6.17
21,CCCNC(=O)C(=O)NCC(c1ccc2c(c1)OCO2)N1CCN(c2ccc(F)cc2)CC1 (stereo not shown),-17.1
22,COc1ccc(-n2cc(-c3ccccc3)[nH]c2=S)c(OC)c1,-0.146
23,O=C(CCNS(=O)(=O)c1ccccc1)OCC(=O)c1ccc(Br)cc1,-22.3
24,Cc1cc(N2CCOCC2)nc2ccc(NC(=O)CCC(=O)N3CCC4(CC3)OCCO4)cc12,-3.4
25,CC1CCN(C(=O)CN2C(=O)C(=O)N(C)C2=O)c2ccccc2S1 (stereo not shown),5.74
26,O=[N+]([O-])c1cc(/C=N/n2cnnc2)ccc1N1CCCC1,-38.7
27,CC(C)(C)OC(=O)N1CCCN(C(=O)Nc2ccc(C(F)(F)F)cc2)CC1,-10.4
28,Cc1cc(Cl)ccc1C(=O)C1CCCN(C(=O)c2ccsc2)C1 (stereo not shown),-8.49

row,SMILES,"hERG current change (%, negative = inhibition) at 10uM [%]"
1,Cn1c(N)c(C(=O)COC(=O)c2ncc(Cl)c(Cl)c2Cl)c(=O)n(C)c1=O,-46.8
2,Cc1ccc(-n2c(CNc3ccc(C)c(Cl)c3)n[nH]c2=S)cc1,0.601
3,Clc1ccc(-c2cc(CN3CCOCC3)no2)cc1,23.1
4,Cc1ccccc1NC(=S)NNC(=O)c1cccnc1,11.5
5,Nc1ccc(C2CCCc3nonc32)c2nonc12 (stereo not shown),15
6,NC(=S)N/N=C/c1ccc(/C=N/NC(N)=S)cc1,30.7
7,Cc1cc(C)c(-c2nc3ccccc3s2)[nH]1,12.1
8,FC(F)Oc1ccccc1NC(=S)Nc1cccnc1,12.2
9,Cc1cc(-c2csc(N)n2)c(C)n1C,1.16
10,OC(CNC1Cc2ccccc2C1)COc1ccc(F)cc1 (stereo not shown),-49.1
11,CSCCC(NC(=O)c1ccc(Cl)cc1Cl)C(=O)OC(C)C(=O)NCc1ccco1 (stereo not shown),-51.8
12,Cc1cccc(N2C(=O)N3[C@H](c4ccc(Br)cc4)[C@@H]4C(=O)N(C(C)(C)C)C(=O)[C@@H]4[C@]3(C)C2=O)c1,3.79
13,O=C(O)Cc1c(-c2ccccc2)c2cc(Cl)ccc2[nH]c1=O,22.1
14,CCS(=O)(=O)N1CCN(c2ccc(C(=O)NC3C4CC5CC(C4)CC3C5)cc2[N+](=O)[O-])CC1 (stereo not shown),-11.7
15,CS(=O)(=O)N(CC(=O)NCC1CCCO1)c1cc(Cl)c(Cl)cc1Cl (stereo not shown),-6
16,CCCS(=O)(=O)N1CCN(C2CCC(C)CC2)CC1.O=C(O)C(=O)O (stereo not shown),9.97
17,CCCCCCCOC(=O)C1=C(C)Nc2ncnn2C1c1cccs1 (stereo not shown),-0.122
18,CCOC(=O)C1=C(Nc2ccccc2)CC(C)(O)C(C(=O)OCC)C1c1ccc(Br)cc1 (stereo not shown),-7.83
19,CC(=O)Nc1ccc(S(=O)(=O)NC(C)C(=O)OCCOc2ccc(F)cc2)cc1 (stereo not shown),-24.3
20,CCOc1ccc(S(=O)(=O)N2CCC(C(=O)NCc3ccncc3)CC2)cc1,-37
21,COc1ccc(/C=N/N2CCN(c3ccccc3OC)CC2)cc1Br,9.45
22,CCCNC(=S)N1CCN(c2nc(-c3ccc(C)cc3)cs2)CC1,5.6
23,Cc1ccc(NC(=O)CS(=O)CC(=O)Nc2ccccc2-c2ccc(C)o2)cc1 (stereo not shown),-7.96
24,CN1CCc2c(sc(NC(=O)C3CCCN3S(=O)(=O)c3ccc(Cl)s3)c2C(N)=O)C1.Cl (stereo not shown),-63.6
25,Cl.Nc1ccc2c(c1)nc(Cc1ccccc1)n2CCO,11.6
26,COc1ccc(C)cc1NC(=O)C(NCC(O)c1ccccc1)c1ccccc1.O=C(O)C(=O)O (stereo not shown),-21.7
27,CS(=O)(=O)c1ccccc1-c1nnc(NC(=O)c2cccc(N3C(=O)CCC3=O)c2)o1,4.71
